Paper PMC4344513
These are yes or no findings as the source states them, for the method shown. For some of these results: Binding seen in cells or lysates may run through a third protein. Some results given as binding are weak or reduced against the parent protein; the word gives no strength. For some of these results: Tags and fused reporters may be left off the sequences shown.

Sequences of proteins named here, by UniProt entry; tags and fusion partners are left off.
UniProt P49005: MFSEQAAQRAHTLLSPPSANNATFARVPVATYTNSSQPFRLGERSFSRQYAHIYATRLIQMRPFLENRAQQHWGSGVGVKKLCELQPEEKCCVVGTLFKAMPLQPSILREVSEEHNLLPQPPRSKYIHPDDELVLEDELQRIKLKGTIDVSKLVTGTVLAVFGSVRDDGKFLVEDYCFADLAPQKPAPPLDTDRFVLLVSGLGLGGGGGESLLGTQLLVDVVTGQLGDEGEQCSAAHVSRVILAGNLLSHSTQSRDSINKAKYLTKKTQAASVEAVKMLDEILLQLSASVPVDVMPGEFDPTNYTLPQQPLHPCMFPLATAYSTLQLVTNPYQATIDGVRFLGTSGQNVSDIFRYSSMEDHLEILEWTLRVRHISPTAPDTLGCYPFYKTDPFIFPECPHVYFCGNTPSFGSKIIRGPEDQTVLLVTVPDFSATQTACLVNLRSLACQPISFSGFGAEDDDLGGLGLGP
UniProt P28340: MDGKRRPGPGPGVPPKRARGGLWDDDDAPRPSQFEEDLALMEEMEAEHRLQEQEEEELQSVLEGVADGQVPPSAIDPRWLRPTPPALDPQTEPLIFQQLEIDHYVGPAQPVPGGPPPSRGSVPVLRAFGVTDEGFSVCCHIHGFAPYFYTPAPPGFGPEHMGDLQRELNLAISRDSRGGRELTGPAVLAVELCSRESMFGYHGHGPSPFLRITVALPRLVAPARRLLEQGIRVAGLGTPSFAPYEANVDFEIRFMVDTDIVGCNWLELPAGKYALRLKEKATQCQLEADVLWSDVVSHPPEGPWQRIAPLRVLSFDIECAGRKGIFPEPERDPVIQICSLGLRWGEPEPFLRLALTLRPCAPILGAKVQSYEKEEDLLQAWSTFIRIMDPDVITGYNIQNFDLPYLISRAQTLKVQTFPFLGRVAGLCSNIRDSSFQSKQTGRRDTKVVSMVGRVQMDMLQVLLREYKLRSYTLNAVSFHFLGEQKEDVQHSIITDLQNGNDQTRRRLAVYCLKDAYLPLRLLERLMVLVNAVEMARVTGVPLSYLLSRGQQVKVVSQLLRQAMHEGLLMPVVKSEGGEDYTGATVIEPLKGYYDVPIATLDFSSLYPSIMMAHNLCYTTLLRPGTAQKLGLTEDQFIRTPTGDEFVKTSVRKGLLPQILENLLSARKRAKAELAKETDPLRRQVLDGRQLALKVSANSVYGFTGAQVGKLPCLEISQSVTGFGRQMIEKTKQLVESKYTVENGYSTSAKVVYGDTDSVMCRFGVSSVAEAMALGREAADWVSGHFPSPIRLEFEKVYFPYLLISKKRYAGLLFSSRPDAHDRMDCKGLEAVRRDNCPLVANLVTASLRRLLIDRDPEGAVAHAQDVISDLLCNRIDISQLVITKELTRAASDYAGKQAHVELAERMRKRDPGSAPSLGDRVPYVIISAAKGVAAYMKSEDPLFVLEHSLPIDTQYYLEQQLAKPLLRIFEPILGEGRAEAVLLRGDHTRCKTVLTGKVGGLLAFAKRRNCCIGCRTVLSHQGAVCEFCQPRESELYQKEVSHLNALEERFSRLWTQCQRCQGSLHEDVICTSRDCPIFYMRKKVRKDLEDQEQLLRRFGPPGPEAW

T1: POLD3 fused to the GAL4-DNA binding domain (human) (UniProt Q15054)
T1 sequence: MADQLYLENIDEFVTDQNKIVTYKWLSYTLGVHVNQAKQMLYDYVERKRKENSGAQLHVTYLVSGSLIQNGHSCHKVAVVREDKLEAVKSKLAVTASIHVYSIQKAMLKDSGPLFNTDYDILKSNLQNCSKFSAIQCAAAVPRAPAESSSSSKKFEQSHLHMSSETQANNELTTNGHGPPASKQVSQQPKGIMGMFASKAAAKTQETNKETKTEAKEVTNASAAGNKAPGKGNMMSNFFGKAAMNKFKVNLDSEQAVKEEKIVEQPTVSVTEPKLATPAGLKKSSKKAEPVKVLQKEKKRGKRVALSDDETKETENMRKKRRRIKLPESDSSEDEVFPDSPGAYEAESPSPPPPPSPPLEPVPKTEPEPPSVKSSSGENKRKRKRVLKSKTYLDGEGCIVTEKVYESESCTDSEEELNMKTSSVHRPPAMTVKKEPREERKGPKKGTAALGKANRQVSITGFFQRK

T2: POLD4 fused to the GAL4-DNA binding domain (human) (UniProt Q9HCU8)
T2 sequence: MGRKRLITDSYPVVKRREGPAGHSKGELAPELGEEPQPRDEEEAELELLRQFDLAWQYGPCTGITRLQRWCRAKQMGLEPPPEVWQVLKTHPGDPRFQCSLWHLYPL


Columns and labels:
[1] = molecular target: POLD2 fused to the GAL4-DNA binding domain (in pGBKT7) (human) (UniProt P49005); assay: two-hybrid; S. cerevisiae AH109; Polη and its mutants as GAL4-activation domain fusions (pACT2), Polδ subunits as GAL4-DNA binding domain fusions (pGBKT7); growth on quadruple drop out medium (-W-L-A-H)
[2] = molecular target: POLD1 fused to the GAL4-DNA binding domain (human) (UniProt P28340); assay: as above
[3] = molecular target: T1, POLD3 fused to the GAL4-DNA binding domain (human); assay: as above
[4] = molecular target: T2, POLD4 fused to the GAL4-DNA binding domain (human); assay: as above
[5] = molecular target: POLD2 endogenous in XPV cells (human (endogenous in XP30RO)) (UniProt P49005); assay: proximity ligation; Polη/POLD2 PLA (rabbit anti-Polη, goat anti-POLD2) on CSK-extracted nuclei of XPV cells stably expressing Polη forms, UV-irradiated (20 J/m^2), processed after 6 h
[6] = molecular target: POLD2 endogenous in XPV cells (human (endogenous in XP30RO)) (UniProt P49005); assay: proximity ligation; Polη/POLD2 PLA (rabbit anti-Polη, goat anti-POLD2) on CSK-extracted nuclei of XPV cells stably expressing Polη forms, non-irradiated
[7] = molecular target: POLD2 fused to the GAL4-DNA binding domain (in pGBKT7) (human), P49005; assay: two-hybrid; S. cerevisiae AH109; Polη and its mutants as GAL4-activation domain fusions (pACT2), Polδ subunits as GAL4-DNA binding domain fusions (pGBKT7); growth on quadruple drop out medium (-W-L-A-H); settings: remark: other sources report otherwise

binding [1]	binding [5]	Binder	further results
no binding		Polι (two-hybrid fusion) (protein, UniProt Q9UNA4 1-740) MEKLGVEPEEEGGGDDDEEDAEAWAMELADVGAAASSQGVHDQVLPTPNASSRVIVHVDLDCFYAQVEMISNPELKDKPLGVQQKYLVVTCNYEARKLGVKKLMNVRDAKEKCPQLVLVNGEDLTRYREMSYKVTELLEEFSPVVERLGFDENFVDLTEMVEKRLQQLQSDELSAVTVSGHVYNNQSINLLDVLHIRLLVGSQIAAEMREAMYNQLGLTGCAGVASNKLLAKLVSGVFKPNQQTVLLPESCQHLIHSLNHIKEIPGIGYKTAKCLEALGINSVRDLQTFSPKILEKELGISVAQRIQKLSFGEDNSPVILSGPPQSFSEEDSFKKCSSEVEAKNKIEELLASLLNRVCQDGRKPHTVRLIIRRYSSEKHYGRESRQCPIPSHVIQKLGTGNYDVMTPMVDILMKLFRNMVNVKMPFHLTLLSVCFCNLKALNTAKKGLIDYYLMPSLSTTSRSGKHSFKMKDTHMEDFPKDKETNRDFLPSGRIESTRTRESPLDTTNFSKEKDINEFPLCSLPEGVDQEVFKQLPVDIQEEILSGKSREKFQGKGSVSCPLHASRGVLSFFSKKQMQDIPINPRDHLSSSKQVSSVSPCEPGTSGFNSSSSSYMSSQKDYSYYLDNRLKDERISQGPKEPQGFHFTNSNPAVSAFHSFPNLQSEQLFSRNHTTDSHKQTVATDSHEGLTENREPDSVDEKITFPSDIDPQVFYELPEAVQKELLAEWKRAGSDFHIGHK	
binds		Polη region spanning amino acids 393–511 fused to the GAL4-activation domain (in pACT2) (domain or fragment, UniProt Q9Y253 393-511) HKMSHDAFTVIKNCNTSGIQTEWSPPLTMLFLCATKFSASAPSSSTDITSFLSSDPSSLPKVPVTSSEAKTQGSGPAVTATKKATTSLESFFQKAAERQKVKEASLSSLTAPTQAPMSN	
binds		Polη full length fused to the GAL4-activation domain (in pACT2) (protein, UniProt Q9Y253 1-713) MATGQDRVVALVDMDCFFVQVEQRQNPHLRNKPCAVVQYKSWKGGGIIAVSYEARAFGVTRSMWADDAKKLCPDLLLAQVRESRGKANLTKYREASVEVMEIMSRFAVIERASIDEAYVDLTSAVQERLQKLQGQPISADLLPSTYIEGLPQGPTTAEETVQKEGMRKQGLFQWLDSLQIDNLTSPDLQLTVGAVIVEEMRAAIERETGFQCSAGISHNKVLAKLACGLNKPNRQTLVSHGSVPQLFSQMPIRKIRSLGGKLGASVIEILGIEYMGELTQFTESQLQSHFGEKNGSWLYAMCRGIEHDPVKPRQLPKTIGCSKNFPGKTALATREQVQWWLLQLAQELEERLTKDRNDNDRVATQLVVSIRVQGDKRLSSLRRCCALTRYDAHKMSHDAFTVIKNCNTSGIQTEWSPPLTMLFLCATKFSASAPSSSTDITSFLSSDPSSLPKVPVTSSEAKTQGSGPAVTATKKATTSLESFFQKAAERQKVKEASLSSLTAPTQAPMSNSPSKPSLPFQTSQSTGTEPFFKQKSLLLKQKQLNNSSVSSPQQNPWSNCKALPNSLPTEYPGCVPVCEGVSKLEESSKATPAEMDLAHNSQSMHASSASKSVLEVTQKATPNPSLLAAEDQVPCEKCGSLVPVWDMPEHMDYHFALELQKSFLQPHSSNPQVVSAVSHQGKRNPKSPLACTNKRPRPEGMQTLESFFKPLTH	binding [2]: no binding; binding [3]: no binding; binding [4]: no binding
	no binding	Polη F1* stably expressed in XP30RO (XPV) cells (protein, UniProt Q9Y253 1-713) MATGQDRVVALVDMDCFFVQVEQRQNPHLRNKPCAVVQYKSWKGGGIIAVSYEARAFGVTRSMWADDAKKLCPDLLLAQVRESRGKANLTKYREASVEVMEIMSRFAVIERASIDEAYVDLTSAVQERLQKLQGQPISADLLPSTYIEGLPQGPTTAEETVQKEGMRKQGLFQWLDSLQIDNLTSPDLQLTVGAVIVEEMRAAIERETGFQCSAGISHNKVLAKLACGLNKPNRQTLVSHGSVPQLFSQMPIRKIRSLGGKLGASVIEILGIEYMGELTQFTESQLQSHFGEKNGSWLYAMCRGIEHDPVKPRQLPKTIGCSKNFPGKTALATREQVQWWLLQLAQELEERLTKDRNDNDRVATQLVVSIRVQGDKRLSSLRRCCALTRYDAHKMSHDAFTVIKNCNTSGIQTEWSPPLTMLFLCATKFSASAPSSSTDITSFLSSDPSSLPKVPVTSSEAKTQGSGPAVTATKKATTSLESAAQKAAERQKVKEASLSSLTAPTQAPMSNSPSKPSLPFQTSQSTGTEPFFKQKSLLLKQKQLNNSSVSSPQQNPWSNCKALPNSLPTEYPGCVPVCEGVSKLEESSKATPAEMDLAHNSQSMHASSASKSVLEVTQKATPNPSLLAAEDQVPCEKCGSLVPVWDMPEHMDYHFALELQKSFLQPHSSNPQVVSAVSHQGKRNPKSPLACTNKRPRPEGMQTLESFFKPLTH	
	binds	wild type Polη stably expressed in XP30RO (XPV) cells (protein, UniProt Q9Y253 1-713) MATGQDRVVALVDMDCFFVQVEQRQNPHLRNKPCAVVQYKSWKGGGIIAVSYEARAFGVTRSMWADDAKKLCPDLLLAQVRESRGKANLTKYREASVEVMEIMSRFAVIERASIDEAYVDLTSAVQERLQKLQGQPISADLLPSTYIEGLPQGPTTAEETVQKEGMRKQGLFQWLDSLQIDNLTSPDLQLTVGAVIVEEMRAAIERETGFQCSAGISHNKVLAKLACGLNKPNRQTLVSHGSVPQLFSQMPIRKIRSLGGKLGASVIEILGIEYMGELTQFTESQLQSHFGEKNGSWLYAMCRGIEHDPVKPRQLPKTIGCSKNFPGKTALATREQVQWWLLQLAQELEERLTKDRNDNDRVATQLVVSIRVQGDKRLSSLRRCCALTRYDAHKMSHDAFTVIKNCNTSGIQTEWSPPLTMLFLCATKFSASAPSSSTDITSFLSSDPSSLPKVPVTSSEAKTQGSGPAVTATKKATTSLESFFQKAAERQKVKEASLSSLTAPTQAPMSNSPSKPSLPFQTSQSTGTEPFFKQKSLLLKQKQLNNSSVSSPQQNPWSNCKALPNSLPTEYPGCVPVCEGVSKLEESSKATPAEMDLAHNSQSMHASSASKSVLEVTQKATPNPSLLAAEDQVPCEKCGSLVPVWDMPEHMDYHFALELQKSFLQPHSSNPQVVSAVSHQGKRNPKSPLACTNKRPRPEGMQTLESFFKPLTH	binding [6]: binds weakly
		Polκ (two-hybrid fusion), Q9UBT6 1-870 (protein) MDSTKEKCDSYKDDLLLRMGLNDNKAGMEGLDKEKINKIIMEATKGSRFYGNELKKEKQVNQRIENMMQQKAQITSQQLRKAQLQVDRFAMELEQSRNLSNTIVHIDMDAFYAAVEMRDNPELKDKPIAVGSMSMLSTSNYHARRFGVRAAMPGFIAKRLCPQLIIVPPNFDKYRAVSKEVKEILADYDPNFMAMSLDEAYLNITKHLEERQNWPEDKRRYFIKMGSSVENDNPGKEVNKLSEHERSISPLLFEESPSDVQPPGDPFQVNFEEQNNPQILQNSVVFGTSAQEVVKEIRFRIEQKTTLTASAGIAPNTMLAKVCSDKNKPNGQYQILPNRQAVMDFIKDLPIRKVSGIGKVTEKMLKALGIITCTELYQQRALLSLLFSETSWHYFLHISLGLGSTHLTRDGERKSMSVERTFSEINKAEEQYSLCQELCSELAQDLQKERLKGRTVTIKLKNVNFEVKTRASTVSSVVSTAEEIFAIAKELLKTEIDADFPHPLRLRLMGVRISSFPNEEDRKHQQRSIIGFLQAGNQALSATECTLEKTDKDKFVKPLEMSHKKSFFDKKRSERKWSHQDTFKCEAVNKQSFQTSQPFQVLKKKMNENLEISENSDDCQILTCPVCFRAQGCISLEALNKHVDECLDGPSISENFKMFSCSHVSATKVNKKENVPASSLCEKQDYEAHPKIKEISSVDCIALVDTIDNSSKAESIDALSNKHSKEECSSLPSKSFNIEHCHQNSSSTVSLENEDVGSFRQEYRQPYLCEVKTGQALVCPVCNVEQKTSDLTLFNVHVDVCLNKSFIQELRKDKFNPVNQPKESSRSTGSSSGVQKAVTRTKRPGLMTKYSTSKKIKPNNPKHTLDIFFK	binding [7]: no binding
